The text below walks through data of paper PMC7819943, “Rice protein-binding microarrays: a tool to detect cis-acting elements near promoter regions in rice”.

Some of the results follow.

The target in this assay is T1, OsWOX13 (Oryza sativa, UniProt Q5QMM3 1-267).
T1 sequence: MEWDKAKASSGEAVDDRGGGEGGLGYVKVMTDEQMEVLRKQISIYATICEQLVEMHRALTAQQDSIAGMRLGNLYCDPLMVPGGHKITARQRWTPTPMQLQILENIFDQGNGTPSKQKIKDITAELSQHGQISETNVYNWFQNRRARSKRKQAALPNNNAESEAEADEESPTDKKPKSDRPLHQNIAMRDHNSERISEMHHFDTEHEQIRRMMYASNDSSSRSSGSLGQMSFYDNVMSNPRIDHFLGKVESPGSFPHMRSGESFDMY
The assay is described as follows: protein-binding microarray (RPBM); PBS, 2% BSA, 51.3 ng/ul salmon testes DNA, 50 uM zinc acetate, 200 nM TF, 25 C, 1 h; high values mean tight binding. Conditions: protein: recombinant; tags: N-terminal polyhistidine and DsRed monomer fusion (pET32a); label: CyDye5-dUTP incorporated in the synthesized complementary strand; 3' TTTTT single-stranded linker to array surface; dsDNA, one strand shown. In short, it runs like this:
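Binding signal is reported as fluorescence intensity per feature (arbitrary units) from an Axon 4000B scanner. Incubation used 200 nM of each Ni–NTA-purified, N-terminally polyhistidine- and DsRed-fused transcription factor from E. coli BL21-CodonPlus on a double-stranded custom Agilent array for 1 h at 25 °C, with 50 µM zinc acetate in the buffer, followed by washing.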
As for “TCAAATCATGATGTAATTAGACTCAAAAGATTAGTTTCGCCGGAGTCACCTAGTGCAG”, the binding signal was 42300 fluorescence intensity (a.u.). With “GTAGAAACACATAATGGCATCAATTACCATAATATTAACACGGAGTCACCTAGTGCAG” the figure was 5500 fluorescence intensity (a.u.); with “TAGACTCATTACACCGGTAATCATCTATAAATGGGTCAACCGGAGTCACCTAGTGCAG”, 3400 fluorescence intensity (a.u.).

In the case of “CAAATTGTCCTTACCTGATTTCCTCTGACAAATGTTTAGTCGGAGTCACCTAGTGCAG”, the binding signal was 7070 fluorescence intensity (a.u.). As for “TTTTGTGATAATTTAGTTAAACTACCCGTAGTTTTGTGAACGGAGTCACCTAGTGCAG”, the binding signal is 7750 fluorescence intensity (a.u.). Under “CTGTTTTATTTAATGATTTTGCATAACTTAAACATGCAAACGGAGTCACCTAGTGCAG” stands 4480 fluorescence intensity (a.u.); under “CAAAACAAATTATAGATTCCGCCTGTAGACTACGAGACGACGGAGTCACCTAGTGCAG”, 8770 fluorescence intensity (a.u.). Turning to “GGAGCATTATTGTTAATTGCACGTCCCAACATTAGTACTACGGAGTCACCTAGTGCAG”, the binding signal was 3870 fluorescence intensity (a.u.).

In the case of “TTGCAAATTATTTACTGAAAATTCTTTATTAAGATGTTAACGGAGTCACCTAGTGCAG”, the binding signal was 10500 fluorescence intensity (a.u.). For “TGAGCACCAATTAAACCAATCACTGATATACGAGGTTGGTCGGAGTCACCTAGTGCAG”, the binding signal is 31500 fluorescence intensity (a.u.).

Consider “ATGATGGAGGGTTGTGATTGGTTGAGTAGTGGAGATAGGTCGGAGTCACCTAGTGCAG”, for which the binding signal is 10500 fluorescence intensity (a.u.). Under “TTCCCACTCAATTGCGTTACAGTTTTCTCCCACAGATCCACGGAGTCACCTAGTGCAG” stands 3480 fluorescence intensity (a.u.); under “TATTCAATTAAATAATTAAAAGGATTGTAGCAAATCCGGACGGAGTCACCTAGTGCAG”, 23600 fluorescence intensity (a.u.); under “TGGGCCTAACTAATCCATGATTAGCCTATGTGATGCTACACGGAGTCACCTAGTGCAG”, 6160 fluorescence intensity (a.u.).

“CAAGCTCCTATTATCAATTATCAAGATAGAATTTTATCGACGGAGTCACCTAGTGCAG”: the binding signal was 7900 fluorescence intensity (a.u.). Under “CATATGATTTATATCTTTTACCTCTACTATTAATAGAGTGCGGAGTCACCTAGTGCAG” stands 26100 fluorescence intensity (a.u.); under “ATTCAAATTCAAATTTGAATCAGATATATAAACTTTTGACCGGAGTCACCTAGTGCAG”, 3810 fluorescence intensity (a.u.); under “GATGATCCTATATAATTGTGTGAAACAAAATTGAGGTTGTCGGAGTCACCTAGTGCAG”, 3920 fluorescence intensity (a.u.). On to “AATTGGTCCCAATTAATTAATTAACCGCCCAGACGTACAGCGGAGTCACCTAGTGCAG”, for which the binding signal was 26500 fluorescence intensity (a.u.). With “ATATTAACTTGATCTATAAATATGTTTATAAATCGACCCACGGAGTCACCTAGTGCAG” the figure was 5030 fluorescence intensity (a.u.). On to “TTTTAAATTTAAAGTTTTGACTTATAAATATAAACATAAACGGAGTCACCTAGTGCAG”, for which the binding signal is 6050 fluorescence intensity (a.u.). With “TTAAATTTGGAGTTAAACAGGTCATACTCATGATCAACTACGGAGTCACCTAGTGCAG” the figure was 11500 fluorescence intensity (a.u.); with “GCTTAATTAATTGATTCAGAAAATAAAATAGTGAAATAACCGGAGTCACCTAGTGCAG”, 33400 fluorescence intensity (a.u.); with “ATGTGATTTTCACCACATATTTTCCCTAAATAATAATGAGCGGAGTCACCTAGTGCAG”, 6900 fluorescence intensity (a.u.).

Take “TATAACAATGGATTTAATGAAATTGATTTAGTGTTATAAGCGGAGTCACCTAGTGCAG”: the binding signal was 19600 fluorescence intensity (a.u.).

Consider “CACAGATTGGTCTAAGCAAGTACAACCGTGGTACCTAAATCGGAGTCACCTAGTGCAG”, for which the binding signal is 8250 fluorescence intensity (a.u.). On to “ACGATATCAATTTGATGGTCATGGAACCTGATACCAACCCCGGAGTCACCTAGTGCAG”, for which the binding signal is 3710 fluorescence intensity (a.u.). Take “ACAATTACACAAATTGCGTGCAAATTATGAGACGGATCTTCGGAGTCACCTAGTGCAG”: the binding signal was 11300 fluorescence intensity (a.u.).

In the case of “GGCAAATCGGTAATTGCCATGTCACAAGAGTGGCAAATAGCGGAGTCACCTAGTGCAG”, the binding signal was 12500 fluorescence intensity (a.u.). With “CATATGACCGACTAATTTGTGGTAACTTGTTTGTTCCATGCGGAGTCACCTAGTGCAG” the figure was 6610 fluorescence intensity (a.u.); with “TAAATTAATGATAATTTTCTTTAATACAAATCCGTTGCATCGGAGTCACCTAGTGCAG”, 40100 fluorescence intensity (a.u.); with “CATTGGACTGCATATTAATTTGAGTATTCTGTTTCTCATTCGGAGTCACCTAGTGCAG”, 4630 fluorescence intensity (a.u.). As to “TGGAGATGAATGATTAGAGCCAAGTGAATGGTCCAAGCACCGGAGTCACCTAGTGCAG”, the binding signal was 12400 fluorescence intensity (a.u.). “CTTGTAATTTCTCTGGGTTGATAATATTTAGAGCACGGTCCGGAGTCACCTAGTGCAG”: the binding signal was 3880 fluorescence intensity (a.u.). In the case of “ACACTAATTATAAATACTAAACGTAGACTATTAATAAAACCGGAGTCACCTAGTGCAG”, the binding signal was 9360 fluorescence intensity (a.u.). Under “AATGCAATTGGATTAGGGGCAATTAACGTTAACCTCTGCCCGGAGTCACCTAGTGCAG” stands 11400 fluorescence intensity (a.u.); under “AGGATTAATTACGCTTAATAAATTTTCTGGCAATTTATAGCGGAGTCACCTAGTGCAG”, 51700 fluorescence intensity (a.u.). Under “CTCTGATAGTTTATAAAACTATATAAGAGATATGTACATTCGGAGTCACCTAGTGCAG” stands 3370 fluorescence intensity (a.u.); under “CAAATTTAAATTTTAACAAGAACTATATAAGCTAGAGGTCCGGAGTCACCTAGTGCAG”, 25300 fluorescence intensity (a.u.); under “ATAATTTGCTACTCACCAAATAATTTGAGCACCTCTGCACCGGAGTCACCTAGTGCAG”, 12100 fluorescence intensity (a.u.). With “GATAATTATTTATATAGATGTATTAAATATTATATATTTTCGGAGTCACCTAGTGCAG” the figure was 14300 fluorescence intensity (a.u.). Regarding “CTGACTTATACTCATCAATCGTCCTCCTCGATTGCTCCTCCGGAGTCACCTAGTGCAG”, the binding signal is 6160 fluorescence intensity (a.u.).
